Data reported in the supplement of paper PMC12217912.
This is one part of the list. The full chains were built here from the parent and the listed change. Values near 0.05 are background.

B1: TEV protease; numbered along this chain (parent)
chain: MGESLFKGPRDYNPISSSICHLTNESDGHTTSLYGIGFGPFIITNKHLFRRNNGTLVVQSLHGVFKVKDTTTLQQHLVDGRDMIIIRMPKDFPPFPQKLKFREPQREERICLVTTNFQTKSMSSMVSDTSCTFPSGDGIFWKHWIQTKDGQCGSPLVSTRDGFIVGIHSASNFTNTNNYFTSVPKNFMELLTNQEAQQWVSGWRLNADSVLWGGHKVFMVKPEEPFQPVKEATQL

Variants of: B1
Assay: raw area under fraction-flipped curve 0-4 h after induction (AUC4h, not background-subtracted), DNA-recorder readout of cleavage of the substrate (dimensionless); higher = more cleavage of the substrate by the protease variant
Settings: temperature: 34 °C; time window: 0-4 h after rhamnose induction
Protocol: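 In vivo DNA recorder in E. coli TOP10(DE3) ΔrhaA at 34 °C. Each TEVp single-site mutant (parent TEVp 0) is paired with a single-site variant of the 7-mer TEVs (canonical ENLYFQ|S). The substrate sits between flexible linkers in a Bxb1-sfGFP-TEVs-SsrA fusion, so cleavage stabilises Bxb1 and speeds flipping of a recombination array, read by NGS. The value is the raw area under the fraction-flipped curve over 0-4 h after rhamnose induction (AUC4h), with ≥20 reads per time point. It is not background-subtracted; inactive controls average about 0.047.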
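Also: Bxb1 expression induced with 0.2% (w/v) L-rhamnose at OD600 near 0.5, cultures sampled hourly, flipped fraction per protease–substrate barcode pair counted by paired-end Illumina sequencing.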

Variant | area with substrate ENLAFQS | area with substrate ENLCFQS | area with substrate ENLDFQS | area with substrate ENLEFQS | area with substrate ENLFFQS | area with substrate ENLHFQS | area with substrate ENLIFQS | area with substrate ENLKFQS | area with substrate ENLPFQS | area with substrate ENLRFQS | area with substrate ENLSFQS | area with substrate ENLVFQS | area with substrate ENLGFQS | area with substrate ENLMFQS | area with substrate ENLWFQS | area with substrate ENLLFQS | area with substrate ENLNFQS | area with substrate ENLQFQS
MGESLFKGPRDYNPISSSICHLTNESDGHTTSLYGIGFGPFIITNKHLFRRNNGTLVVQSLHGVFKVKDTTTLQQHLVDGRDMIIIRMPKDFPPFPQKLKFREPQREERICLVTTNFQTKSMSSMVSDTSCTFPSGDGIFWKHWIQTKDGQCGSPLVSTRDGFIVGIHSASNFTNTNNYFTSVPKNFMELLTNQEAQQWVLGWRLNADSVLWGGHKVFMVKPEEPFQPVKEATQL [S201L] | 0.0656 | 0.045 | 0.0684 | 0.0631 | 0.071 | 0.0938 | 0.0699 | 0.0783 | 0.0633 | 0.0644 | 0.0566 | 0.0428 |  |  |  |  |  | 
MGESLFKGPRDYNPISSSICHLTNESDGHTTSLYGIGFGPFIITNKHLFRRNNGTLVVQSLHGVFKVKDTTTLQQHLVDGRDMIIIRMPKDFPPFPQKLKFREPQREERICLVTTNFQTKSMSSMVSDTSCTFPSGDGIFWKHWIQTKDGQCGSPLVSTRDGFIVGIHSASNFTNTNNYFTSVPKNFMELLTNQEAQQWVSLWRLNADSVLWGGHKVFMVKPEEPFQPVKEATQL [G202L] | 0.0569 |  |  |  | 0.0479 |  |  | 0.0602 |  |  | 0.0565 |  | 0.0578 | 0.0708 | 0.0607 |  |  | 
MGESLFKGPRDYNPISSSICHLTNESDGHTTSLYGIGFGPFIITNKHLFRRNNGTLVVQSLHGVFKVKDTTTLQQHLVDGRDMIIIRMPKDFPPFPQKLKFREPQREERICLVTTNFQTKSMSSMVSDTSCTFPSGDGIFWKHWIQTKDGQCGSPLVSTRDGFIVGIHSASNFTNTNNYFTSVPKNFMELLTNQEAQQWVSGCRLNADSVLWGGHKVFMVKPEEPFQPVKEATQL [W203C] | 0.06 | 0.0756 | 0.0722 | 0.0581 | 0.065 | 0.0621 | 0.0554 | 0.0702 | 0.0418 | 0.0811 |  | 0.0577 | 0.0634 | 0.0555 | 0.0571 | 0.0597 | 0.059 | 0.0701
MGESLFKGPRDYNPISSSICHLTNESDGHTTSLYGIGFGPFIITNKHLFRRNNGTLVVQSLHGVFKVKDTTTLQQHLVDGRDMIIIRMPKDFPPFPQKLKFREPQREERICLVTTNFQTKSMSSMVSDTSCTFPSGDGIFWKHWIQTKDGQCGSPLVSTRDGFIVGIHSASNFTNTNNYFTSVPKNFMELLTNQEAQQWVSGWQLNADSVLWGGHKVFMVKPEEPFQPVKEATQL [R204Q] | 0.0705 | 0.0778 | 0.0611 | 0.0855 | 0.0964 | 0.0826 | 0.0878 | 0.103 |  | 0.0818 | 0.0492 | 0.0916 |  | 0.102 |  |  | 0.0699 | 0.0566
MGESLFKGPRDYNPISSSICHLTNESDGHTTSLYGIGFGPFIITNKHLFRRNNGTLVVQSLHGVFKVKDTTTLQQHLVDGRDMIIIRMPKDFPPFPQKLKFREPQREERICLVTTNFQTKSMSSMVSDTSCTFPSGDGIFWKHWIQTKDGQCGSPLVSTRDGFIVGIHSASNFTNTNNYFTSVPKNFMELLTNQEAQQWVSGWWLNADSVLWGGHKVFMVKPEEPFQPVKEATQL [R204W] | 0.0642 | 0.0658 | 0.0658 | 0.128 | 0.0909 | 0.071 | 0.114 | 0.0774 | 0.0809 | 0.0727 | 0.0492 | 0.087 | 0.0668 |  | 0.0814 | 0.0808 | 0.0725 | 0.0736
MGESLFKGPRDYNPISSSICHLTNESDGHTTSLYGIGFGPFIITNKHLFRRNNGTLVVQSLHGVFKVKDTTTLQQHLVDGRDMIIIRMPKDFPPFPQKLKFREPQREERICLVTTNFQTKSMSSMVSDTSCTFPSGDGIFWKHWIQTKDGQCGSPLVSTRDGFIVGIHSASNFTNTNNYFTSVPKNFMELLTNQEAQQWVSGWRLTADSVLWGGHKVFMVKPEEPFQPVKEATQL [N206T] | 0.0701 |  | 0.0484 | 0.0607 |  | 0.0534 | 0.0862 | 0.0797 | 0.0513 |  |  |  |  |  |  | 0.0878 | 0.0701 | 
MGESLFKGPRDYNPISSSICHLTNESDGHTTSLYGIGFGPFIITNKHLFRRNNGTLVVQSLHGVFKVKDTTTLQQHLVDGRDMIIIRMPKDFPPFPQKLKFREPQREERICLVTTNFQTKSMSSMVSDTSCTFPSGDGIFWKHWIQTKDGQCGSPLVSTRDGFIVGIHSASNFTNTNNYFTSVPKNFMELLTNQEAQQWVSGWRLNVDSVLWGGHKVFMVKPEEPFQPVKEATQL [A207V] | 0.0462 |  | 0.0646 | 0.0601 | 0.0854 | 0.0803 | 0.0608 | 0.0809 | 0.062 | 0.0734 | 0.0669 | 0.0897 |  | 0.0638 | 0.0606 | 0.0761 | 0.0668 | 0.0378
MGESLFKGPRDYNPISSSICHLTNESDGHTTSLYGIGFGPFIITNKHLFRRNNGTLVVQSLHGVFKVKDTTTLQQHLVDGRDMIIIRMPKDFPPFPQKLKFREPQREERICLVTTNFQTKSMSSMVSDTSCTFPSGDGIFWKHWIQTKDGQCGSPLVSTRDGFIVGIHSASNFTNTNNYFTSVPKNFMELLTNQEAQQWVSGWRLNADSVVWGGHKVFMVKPEEPFQPVKEATQL [L211V] | 0.0652 |  | 0.0732 | 0.0443 |  |  | 0.0915 | 0.07 |  | 0.0577 |  |  |  |  | 0.0846 | 0.0762 |  | 0.0669
MGESLFKGPRDYNPISSSICHLTNESDGHTTSLYGIGFGPFIITNKHLFRRNNGTLVVQSLHGVFKVKDTTTLQQHLVDGRDMIIIRMPKDFPPFPQKLKFREPQREERICLVTTNFQTKSMSSMVSDTSCTFPSGDGIFWKHWIQTKDGQCGSPLVSTRDGFIVGIHSASNFTNTNNYFTSVPKNFMELLTNQEAQQWVSGWRLNADSVLDGGHKVFMVKPEEPFQPVKEATQL [W212D] | 0.0493 |  | 0.0699 |  | 0.049 |  |  | 0.0614 | 0.0518 |  | 0.0614 | 0.0633 |  |  |  | 0.0506 | 0.0662 | 
MGESLFKGPRDYNPISSSICHLTNESDGHTTSLYGIGFGPFIITNKHLFRRNNGTLVVQSLHGVFKVKDTTTLQQHLVDGRDMIIIRMPKDFPPFPQKLKFREPQREERICLVTTNFQTKSMSSMVSDTSCTFPSGDGIFWKHWIQTKDGQCGSPLVSTRDGFIVGIHSASNFTNTNNYFTSVPKNFMELLTNQEAQQWVSGWRLNADSVLFGGHKVFMVKPEEPFQPVKEATQL [W212F] | 0.06 |  | 0.0537 |  | 0.0934 | 0.0692 | 0.0694 | 0.0754 | 0.0621 | 0.0783 |  | 0.0926 |  |  | 0.0633 |  | 0.0619 | 
